No constants are given. Whether binding was seen depends on the method and setting. For some assays here: In cells and extracts the contact can be indirect. Some entries that bind do so weakly or less than the wild type. Tags and fused reporters may be left off the sequences shown.
Assays:
[1] = molecular target: AtC53 (construct of Figure 9A) (Arabidopsis thaliana) (UniProt Q9FG23); assay: pull-down; E. coli lysates with recombinant proteins mixed, glutathione magnetic agarose beads, 1 h 4°C, 100 mM sodium phosphate pH 7.2, 300 mM NaCl, 1 mM DTT, 0.01% IGEPAL; immunoblot; peptides at 200 µM where added
[2] = molecular target: GST-GABARAP (human), O95166; assay: SPR; qualitative; GST-GABARAP or GST-ATG8A captured; four sets of double consecutive injections of 10 µM analyte without or with 6.4 µM AIM wt or AIM mut peptide; 25°C; both purified; settings: remark: other sources report otherwise

Amino acid sequences for entries named in this document (tags omitted).
UniProt Q9FG23: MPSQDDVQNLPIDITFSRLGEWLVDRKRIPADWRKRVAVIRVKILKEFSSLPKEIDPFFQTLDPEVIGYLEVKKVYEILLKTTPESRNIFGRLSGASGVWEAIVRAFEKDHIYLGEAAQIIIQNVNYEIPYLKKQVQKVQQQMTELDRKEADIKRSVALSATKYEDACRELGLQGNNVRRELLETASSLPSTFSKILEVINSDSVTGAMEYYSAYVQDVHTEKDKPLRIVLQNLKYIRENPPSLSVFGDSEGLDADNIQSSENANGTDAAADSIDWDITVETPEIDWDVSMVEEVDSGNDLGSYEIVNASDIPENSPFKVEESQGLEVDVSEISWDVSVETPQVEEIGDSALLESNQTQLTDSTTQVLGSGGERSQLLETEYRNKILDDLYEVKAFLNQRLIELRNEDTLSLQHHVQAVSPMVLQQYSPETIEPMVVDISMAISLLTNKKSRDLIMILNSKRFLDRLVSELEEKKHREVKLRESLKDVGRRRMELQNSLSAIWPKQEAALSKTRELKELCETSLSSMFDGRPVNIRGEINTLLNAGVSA

B1: MBP-ATG8A (protein, UniProt Q8LEM4 1-117)
chain: MAKSSFKISNPLEARMSESSRIREKYPDRIPVIVEKAGQSDVPDIDKKKYLVPADLTVGQFVYVVRKRIKLGAEKAIFVFVKNTLPPTAALMSAIYEEHKDEDGFLYMTYSGENTFG
[1]
  binding: binds

B2: HIS6-HsC53 ^(sAIM(W269A, W294A, W312A)), Q96JB5 1-506 (protein)
chain: MEDHQHVPIDIQTSKLLDWLVDRRHCSLKWQSLVLTIREKINAAIQDMPESEEIAQLLSGSYIHYFHCLRILDLLKGTEASTKNIFGRYSSQRMKDWQEIIALYEKDNTYLVELSSLLVRNVNYEIPSLKKQIAKCQQLQQEYSRKEEECQAGAAEMREQFYHSCKQYGITGENVRGELLALVKDLPSQLAEIGAAAQQSLGEAIDVYQASVGFVCESPTEQVLPMLRFVQKRGNSTVYEWRTGTEPSVVERPHLEELPEQVAEDAIDAGDFGVEAVSEGTDSGISAEAAGIDAGIFPESDSKDPGGDGIDAGDDAVALQITVLEAGTQAPEGVARGPDALTLLEYTETRNQFLDELMELEIFLAQRAVELSEEADVLSVSQFQLAPAILQGQTKEKMVTMVSVLEDLIGKLTSLQLQHLFMILASPRYVDRVTEFLQQKLKQSQLLALKKELMVQKQQEALEEQAALEPKLDLLLEKTKELQKLIEADISKRYSGRPVNLMGTSL
[2]
  binding: no binding (tested: 10 µM)

From article PMC7515635
